Out of some 350,000 compounds screened, about 260 (0.074%) were called active. The shares of active, inactive and inconclusive entries below differ from those in the screen. The call rests on the fitted dose curve; in most records, active means well fitted inhibition curve with a large enough effect; inconclusive means small, poorly fitted or top-dose-only effect; inactive means no such curve, though single readings can be large or run the other way. A potency beside an inconclusive call is a rough fit, not a confirmed value.
Target: Ferritin light chain (Equus caballus) (UniProt P02791)
UniProt P02791, sequence (P02791 whole entry, looked up): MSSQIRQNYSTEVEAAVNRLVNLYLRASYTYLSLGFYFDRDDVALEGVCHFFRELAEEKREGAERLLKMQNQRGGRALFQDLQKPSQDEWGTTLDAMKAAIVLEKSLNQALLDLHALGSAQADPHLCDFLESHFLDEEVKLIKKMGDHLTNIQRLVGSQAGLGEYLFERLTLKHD
Assay: qHTS Assay for Identification of Novel General Anesthetics; further: nearly all actives have a fitted effect of over 20% in size
Details: apoferritin/1-aminoanthracene competitive binding, fluorescence; activity change, negative = displacement: at 77.5 µM (top of the series)
Summary of the method: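 Steps: apoferritin (10 uM) was premixed with half-saturated 1-AMA in PBS, compounds were pin-transferred, plates stood 10 min at room temperature, fluorescence was read at 380/535 nm, and curves were fitted with a Hill equation.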
On the % scale 0 is the no-effect control and ±100 the full control effect; potency means the concentration at half of the fitted maximal effect; tags describe the fitted curve by direction and shape.

**Q.** `Cc1cccc(C)c1NC(=O)N1CCCCCCC1` was tested. Which Potency did it give?
**A.** inconclusive: 25.1 µM [inhibitor, single point]

**Q.** Which Potency does the source give for `COc1cccc(C(=O)Nc2nc(-c3nnn(-c4cccc(Cl)c4C)c3C)ns2)c1` here?
**A.** inconclusive: 8.91 µM [inhibitor, partial curve]

**Q.** `FC(F)(F)Oc1ccc(NC(=S)Nc2ccc(OC(F)(F)F)cc2)cc1` was tested. Which Potency did it give?
**A.** inactive

**Q.** With `COc1ccc(C(=O)Nc2ccc(-c3nc4ccccc4s3)c(Cl)c2)cc1Cl` as the compound, how does the Potency read?
**A.** inactive

**Q.** With `C/C(=N/Nc1ncc(C(F)(F)F)cc1Cl)c1ccncc1` as the compound, how does the Potency read?
**A.** inconclusive: 28.2 µM [inhibitor, single point]

**Q.** `CCN(c1ccccc1)S(=O)(=O)c1cc(CN2C(=O)c3cccnc3C2=O)ccc1OC` was tested. Which activity change, negative = displacement did it give?
**A.** inconclusive: -26.1% [inhibitor]

**Q.** For `CCOc1ccccc1NC(=O)CSc1nnc(-c2ccco2)n1Cc1ccco1`, which Potency is on record?
**A.** inconclusive: 35.5 µM [inhibitor, single point]

**Q.** With `CC(=O)Nc1sc2c(c1-c1nc3ccccc3s1)CCN(C(C)C)C2` as the compound, how does the Potency read?
**A.** inactive

**Q.** How did the Potency turn out when `N#CCCN1CCN(C2=NC(=O)/C(=C\c3cccs3)S2)CC1` was run?
**A.** inconclusive: 28.2 µM [inhibitor, single point]

**Q.** How did the Potency turn out when `O=c1c2ccsc2ncn1Cc1ccc(Cl)cc1` was run?
**A.** inconclusive: 28.2 µM [inhibitor, single point]

**Q.** Which Potency does the source give for `O=C(Nc1ccccc1[N+](=O)[O-])C1COc2ccccc2O1` (stereo not drawn) here?
**A.** inconclusive: 28.2 µM [inhibitor, partial curve]

**Q.** `COc1ccccc1OCc1nc2ccccc2s1` was tested. Which Potency did it give?
**A.** inconclusive: 39.8 µM [inhibitor, single point]

**Q.** Which Potency does the source give for `N#Cc1cccc(NC(=O)CC2CCCCC2)c1` here?
**A.** inconclusive: 14.1 µM [inhibitor, partial curve]

**Q.** How did the Potency turn out when `CCc1ccc2oc(-c3ccc(NC(C)=O)cc3)nc2c1` was run?
**A.** inconclusive: 35.5 µM [inhibitor, single point]

**Q.** With `Cc1ccc(N2C(=O)CC3(CC4C=CC3C4)C2=O)cc1` (stereo not drawn) as the compound, how does the Potency read?
**A.** active: 7.94 µM

**Q.** How did the Potency turn out when `O=S(=O)(Nc1ccc(N2CCCCC2)cc1)c1cccs1` was run?
**A.** inconclusive: 15.8 µM [inhibitor, partial curve]

**Q.** `CCOC(=O)C1C(=O)C=C(c2ccc(OC)cc2)CC1c1ccco1` (stereo not drawn) was tested. Which Potency did it give?
**A.** inconclusive: 35.5 µM [inhibitor, partial curve]

**Q.** How did the Potency turn out when `CCOc1ccc(S(=O)(=O)NCc2cccn2Cc2cccc(C)c2)cc1` was run?
**A.** inactive

**Q.** For `O=C(Cn1cnc2ccccc2c1=O)NCc1ccc2c(c1)OCO2`, which Potency is on record?
**A.** inconclusive: 31.6 µM [inhibitor, partial curve]

**Q.** How did the Potency turn out when `CCOc1cc(/C=C2\C(=O)N(c3nc(-c4ccc(Br)cc4)cs3)N=C2c2ccccc2)ccc1O` was run?
**A.** inconclusive: 56.2 µM [inhibitor, single point]

**Q.** How did the Potency turn out when `COC(=O)c1[nH]c(C)c(/C(O)=C2\C(=O)C(=O)N(CCN3CCOCC3)C2c2cccs2)c1C` (stereo not drawn) was run?
**A.** inconclusive: 31.6 µM [inhibitor, single point]

**Q.** For `O=C(O)C1CCCCC1C(=O)Nc1ccccc1F` (stereo not drawn), which Potency is on record?
**A.** inconclusive: 35.5 µM [inhibitor, single point]

**Q.** With `CC[N+](CC)(CC)CCOc1ccc(/C=C/c2ccccc2)cc1` as the compound, how does the Potency read?
**A.** inconclusive: 28.2 µM [inhibitor, single point]

**Q.** For `Nc1nnc(CSCc2ccccc2Cl)s1`, which Potency is on record?
**A.** inconclusive: 56.2 µM [inhibitor, single point]

**Q.** How did the Potency turn out when `Cc1ccc(NS(=O)(=O)c2c(C)nc3sc(C)c(C)n3c2=O)cc1F` was run?
**A.** inconclusive: 12.6 µM [inhibitor, partial curve]

**Q.** Which Potency does the source give for `COc1ccc(/C=N/NC(=O)CCSc2nc3ccccc3s2)cc1OC` here?
**A.** inactive

**Q.** For `CC(CNC(=O)c1cc2cc(S(=O)(=O)N3CCCCC3)ccc2n1C)c1ccccc1` (stereo not drawn), which Potency is on record?
**A.** inactive

**Q.** Which Potency does the source give for `Cc1ccc(CCNC(=O)c2sc3nc4n(c(=O)c3c2C)CCCC4)cc1` here?
**A.** inactive

**Q.** How did the Potency turn out when `COc1ccccc1CNC(=O)c1ccc2c(c1)nc(C)n2-c1cccc(C)c1` was run?
**A.** inactive

**Q.** How did the Potency turn out when `Cc1cc(C)n(C(=O)C2CCCN2S(=O)(=O)c2ccc(Cl)cc2)n1` (stereo not drawn) was run?
**A.** inconclusive: 35.5 µM [inhibitor, partial curve, poor fit]

**Q.** `Cc1ccc(C(C)n2cc(C(=O)NCc3ccncc3)nn2)cc1` (stereo not drawn) was tested. Which Potency did it give?
**A.** inconclusive: 31.6 µM [inhibitor, partial curve]

**Q.** Which Potency does the source give for `CC(C)c1ccc(NC(=S)Nc2ccc3cn[nH]c3c2)cc1` here?
**A.** inconclusive: 35.5 µM [inhibitor, single point]

**Q.** For `Cc1ccc(C(=O)C2CCN(CC(=O)Nc3ccc(N(C)C)cc3)CC2)cc1`, which Potency is on record?
**A.** inconclusive: 31.6 µM [inhibitor, partial curve]

**Q.** How did the Potency turn out when `CC(C)(C)CC(C)(C)c1ccc(OCOCCOCCO)c(Cc2cc(C(C)(C)CC(C)(C)C)cc(Cc3cc(C(C)(C)CC(C)(C)C)ccc3OCOCCOCCO)c2OCOCCOCCO)c1` was run?
**A.** inconclusive: 8.91 µM [inhibitor, partial curve]

**Q.** `CC(C)OC(=O)c1ccc(NC(=O)CSc2nc(-c3cccs3)cc(C(F)(F)F)n2)cc1` was tested. Which Potency did it give?
**A.** inconclusive: 2.51 µM [inhibitor, full curve, poor fit]

**Q.** `O=C(CNC(=O)c1ccccc1O)N/N=C/c1cc(Br)ccc1OC(=O)/C=C/c1ccco1` was tested. Which Potency did it give?
**A.** inconclusive: 17.8 µM [inhibitor, partial curve]

**Q.** With `COc1ccc(NC(=O)CSc2nnc(C3CCCCC3)n2N)cc1` as the compound, how does the Potency read?
**A.** inconclusive: 12.6 µM [inhibitor, partial curve]

**Q.** For `COc1ccc(NCc2ccc3c(c2)OCO3)cc1Cl`, which Potency is on record?
**A.** inconclusive: 28.2 µM [inhibitor, partial curve]

**Q.** For `CC1CCCC(NC(=O)COC(=O)c2ccc3ccccc3n2)C1C` (stereo not drawn), which Potency is on record?
**A.** inconclusive: 25.1 µM [inhibitor, partial curve, poor fit]

**Q.** Which Potency does the source give for `c1csc(C2=Nn3c(nnc3-c3ccncc3)SC2)c1` here?
**A.** inactive

**Q.** Which Potency does the source give for `COc1cccc(OC)c1C(=O)Nc1ccc2c3c(cccc13)CC2` here?
**A.** inconclusive: 28.2 µM [inhibitor, partial curve]

**Q.** For `CC(C(=O)Nc1sc2c(c1C(=O)NCc1ccco1)CCCC2)N1C(=O)c2ccccc2C1=O` (stereo not drawn), which Potency is on record?
**A.** inactive

**Q.** `Cc1cccc(CN2C(=O)c3ccccc3S(=O)(=O)c3ccc(C(=O)OCC4CCCO4)cc32)c1` (stereo not drawn) was tested. Which Potency did it give?
**A.** inconclusive: 25.1 µM [inhibitor, partial curve]
